Read counts are not given, so values of variants with three or more changes are uncertain.
B1: OR4K15 (parent)
chain: GUUAACGGUCAUAGGCCAUGGAAACUAGGAGCACCAUUUCGCUGCCAGUGAAGAAAUGAACAAAGAAAAUCUGGGCCAGGCAGGCAUCAAAAGAAAUAGUCUUGCGCUCAACCAGAAAGUCUGUAAUCAUUUUAAGGGUA

Variants of: B1
Assay: self-cleavage, relative activity (ratio to wild type); higher = more cleavage; in vitro, sequencing; the parent is a self-cleaving ribozyme

Row | Variant | self-cleavage
1 | GUUAACGGCCAUAGGCCAUGGAAACUAGGAGCACCAUUCCGCUGCCAGUGAAGAAAUGAACAAAGAAAAUCUGGGCCAGGCAGGCACCAAAAGAAAUAGUCUUGCGCUCAGCCAGAAAGUCUGUAAUCAUUUUAAAGGUA [U9C U39C U87C A111G G136A] | 0.03
2 | GUUAACGGUCAUAGGCCAUGGAAACUAGGAGCACCAUUUCGCUGCCAGUGAAGAAAUGAACAAAGAAAAUCUGAGCCAGGCAGGCAUCUAAAGAAAUAGUCUUGCGCUCAACCAGAAUGUCUGUAAUCAUUUUAAGGGUA [G74A A89U A118U] | 0.09
3 | GCUAACGGUCAUAGGCCAUGGAAACUGGGAGCACCAUUUCGCUGCCAGUGAAGAAAUGAACAAAGAAAAUCUGGGCCUGGCAGGCAUCAAGAGAAAUAGUCUUGCCCUCAACCAGAAGGUCUGUAAUCAUUUUAAGGGUA [U2C A27G A78U A91G G106C A118G] | 0
4 | GUUAACGGUCAUAGGCCAUGGAAACUAGGAGCACCACUUCGCUGCCAGUGAAGAAAUGAACAAAGAAAAUCUGGGCCAGGCAGGCAUCAGAAGAAAUAGUCUUGCGCCCAACCAGAAAGUCUGUAAUCAUUUUAAGGGUA [U37C A90G U108C] | 0.02
5 | GUUAACGGUCAUAGGCCAUGGAAACUAGGAGCACCACUUCGCUGCCAGUGAAGAAAUGAACAAAGAAAAUCUGGGCCAGGCAGGCAUCAAAAGAAAUAGUCUUGCGCUCAACCAGAGAGUCUGUGAUCAUUUUAAGGGUA [U37C A117G A125G] | 0.48
6 | GUCAACGGUCAUAGGCCAUGGAAACUAGGAGCACCAGAUCGCUGCCAGUGAAGAAAUGAGCAAAAAAAAUCUGGGCCAGGCAGGCAUCAAAAGAAAUAGUCUUGCGCUCAACCAGAAAGUCUGUAAUCAUUUUAAGGGUA [U3C U37G U38A A60G G65A] | 0.57
7 | GUUAGCGGUCAUAGGCCAUGGAAACUAGGAGCACCAUCUCGCUGCCAGUGAAGAAAUGAACAGAGAAAAUCUGGGCCAGGCAGGCAUCAAAAGGAAUAGUCUUGCGCUCAACCAGAAAGUCUGUAGUCAUUUUAAGGGUA [A5G U38C A63G A94G A126G] | 1.17
8 | GCUAACGGUCAUAGGCCAUGGAAACUAGGAGCACCAUUUCGCUGCCAGUGAAGAAAUGAACAAAGAAAAUCUGGGCCAGGCAGGCAUCAAAAGAAGUAGUCUGGCGCUCAACCAGAAAGUCUGUAAUCACUUUAAGGGUA [U2C A96G U103G U130C] | 0.02
9 | GUUAACGGUCAUAGGCCGUGGAAACUAGGAGCACCAUUUCGCUGCCAGUGAAGAAAUGGACAAAGAAAAUCUGGGCCAGGCAGGCAUCAAAAGAAAUAGUCUUGCGCUCAACCAGAAAGCCUGUAACCAUUUUAAGGGUA [A18G A59G U120C U127C] | 0.35
10 | GUUAACGGUCAUAGGCCAUGGAAACUAGGAGCACCACUUCGCUGCCAGUGAUGAGAUGAACAAAGAAAAUCUGGGCCAGGCAGGCAUCAAAAGAAAUAGUCUUGCGCACAACCAGAAAGUCUGUAAUCAUUUUAAGGGUA [U37C A52U A55G U108A] | 0.04
11 | GUUAACGGUCAUAGGCCAUGGAAACUAGGAGCACCAUUUCGCUGCCAGUGAAGAAAUGAACAAAGAAGAUCUGGGCCAGGCAGGCAUCAAUAGAAAUAGUCAUGCGCUCAACCAGAAAGUCUGUAAUCAUUUUAAGGGUA [A68G A91U U102A] | 0.92
12 | GUUAACGGUCAUAGGCCAUAGAAACUAGGAGCACCAUUUCGCUGCCAGUGAAGAAAUGAACAAGGAAAAUCUGGGCCAGGCAGGCAUCAAAAGAAAUGGUCUUGCGCUCAUCCAGAAGGUCUGUAAUCAUUUUAAGGGUA [G20A A64G A98G A111U A118G] | 0.03
13 | GUUAACGGUCAUAGGCCAUGGAAACUAGGAGCACCAUCUCGCUGCCAGUGAAGAAAUGAACAAAGAAAAUCUGGGCCAGGCAGGCAUCAAAAGAGAUAGUCUUGCGCUCAACCAGAGAGUCUGUAAUCAUUUUAAGGGUA [U38C A95G A117G] | 2.09
14 | GUUAACGGUCAUAGGCCAUGGAAACUAGGAGCACCAUUUCGCUGCCAGUGAAGAAAUGAACAAAGAAAAUCUGGGCCAGGCAGGCAUCAAAAGGAAUGGUCUUGCGCUCAACCAGAAAGUCGGUAGUCAUUUUAAGGGUA [A94G A98G U122G A126G] | 1
15 | GUUAACGGUCAUAGGCCAUGGAAACUAGGAGCACCAUUCCGCUGCCAGUGAAGAAAUGAACAAAGAAAAUCUGGGCCAGGCAGGCAUCAAGAGAAAUAGUCUUGCGCUCUACCAGAAAGUCUGUAAUCAUUUUAAGGGUA [U39C A91G A110U] | 1.41
16 | GUUGACGGUCAUAGGCCAUGGAAACUAGGAGCACCAUUUCGCUGCCAGUGCAGAAAUGAACAAAGAAAAUCUGGGCCAGGCAGGCAUCAAAAGAAAUAGUCUUGCGCUCAACCAGAAAGUCUGUAAUCAUUUUAUGGGUA [A4G A51C A135U] | 1.2
17 | GUUAACGGUCAUAGGCCAUGGAAACUAGGAGCUCCAUUUCGCUGCCAGUGAAGAAAUGAACAGAGAAAAUCUGGGCCAGGCAGGCAUCAAAAGAAAUAGUCUUGCGCACAACCGGAAAGCCUGUAAUCAUUUUAAGGGUA [A33U A63G U108A A114G U120C] | 0.01
18 | GUUAACGGUCUUAGGCCAUGGAAACUAGGAGCACCAUUUCGCUGCCAGUGAAGAAAUGAACAAAGAAAAUCUGGGCCAGGCGGGCAUCAAAAGAAAUAGUCAUGCGCUCAACCAGAAAGUCUGCAAUCAUUUUAAGGGUA [A11U A82G U102A U124C] | 0.41
19 | GUUAACGGUCAUAGGCCAUGGAAACUAGGAGCACCAUUUCGCCGCCAGUGAAGAAAUGAACAAAGAAAAUCUGGGCCAGGCAGGCAACAGAAGAAAUAGUCUUGCGCUCAACCAGAAAGUCUGUAAUCAUUUUAAGGGUA [U43C U87A A90G] | 0.09
20 | GUUAACGGUCACAGGCCUUGGAAACUAGGAGCACCAUUUCGCUGCCAGCGAAGAAAAGAACAAAGAAAAUCUGGGCCAGGCAGGCAUCGAAAGAAAUAGUCUUGCGCUCAACCAGAAAGUCUGUAAUCAUUUUAAGGGUA [U12C A18U U49C U57A A89G] | 1.18
21 | GUUAACGGUCAUAGGCCAUGGAGACUAGGAGCACCAUUUCGCUGCCAAUGGAGAAAUGAACAGAGAAAAUCUGGGCCAGGCAGGCAUCAAAAGAAAUAGUCUUGCGCUCAACCAGAGAGACUGUAAUCAUUUUAAGGGUG [A23G G48A A51G A63G A117G U120A A140G] | 0.23

From the RNAGym collection of RNA variant scans (doi:10.7554/elife.90254)
